Source: publication PMC12136788
The other results are listed elsewhere or left out.

B1: chr1:114568131:114568247:-|CDS|ENSG00000116752|unk|FALSE|bound_elsewhere (ssRNA)
RNA: GGGAGUUCUACAGUCCGACGAUCUUCUAGUUGGGUAUCCCUGGUCAGUAAGAAUUAUGAGAUUGAACGGACUAUUGUUCAGCUAGAAAAUGAAAUCUAUCAAAUUAAGCAGCAACAUGGAGAGGCAAACAAAGAAAACAUCCGCAACAGAGGAUUGAGCAUCA
B2: chr19:48382969:48383148:-|3pUTR|ENSG00000105438|msi1_unk|FALSE|overlapping (ssRNA)
RNA: GGGAGUUCUACAGUCCGACGAUCACUUGGGCUGUUUGUAGUUUUUUGCCUUUUAGACAAGAAAAAAAAAUCUUUCCACUCUUUAGUUUUUGAUUCUGAUGACUCGUUUUUCUUCUACUCUGUGGCCCCAAUUUUUAUAAAGUGCAACAGAGGAUUGAGCAUCA
B3: chr1:90712314:90712624:-|CDS|ENSG00000143032|control|control|control (ssRNA)
RNA: GGGAGUUCUACAGUCCGACGAUCUCCAGCACCCCAUCCCCAGCUGCAGCGGCCCCUGGUGCCCCGUGUGCUCAUCCACGGCCUAGGGCCUGGGGGACAGCCAGCCCUUAAUCCAUUGUCCAGCCCCAUCCCAGGCACCCCACACAACAGAGGAUUGAGCAUCA
B4: chr7:20410151:20410448:+|3pUTR|ENSG00000105855|msi1|FALSE|unique (ssRNA)
RNA: GGGAGUUCUACAGUCCGACGAUCACUAGUGUCGUUGUAGCACUUUACUGUAAUAUAUAACUUAUUUAGAUCAGCAUAGAAUGUAGAUCCUCUGAAGAGCACUGAUUACACUUUACAGGUACCUGUUAUCCCUACGCUUCCCAGCAACAGAGGAUUGAGCAUCA
B5: chr22:44243664:44249684:-|three_prime_utr|ENSG00000138944|control|control|control (ssRNA)
RNA: GGGAGUUCUACAGUCCGACGAUCGCACCCGGUGCAGCCUCCGAGAAGAACAACUUCUACAGAGAUGCCAGGGACAGCCGAGGUAGCGGCGGUGGCACAGGAGGAAAUGCUGCCUGUGCCCAAAGCCCCCUUCCGCGGACUUCUCAACAGAGGAUUGAGCAUCA
B6: chr7:4859899:4861810:-|CDS|ENSG00000218823|control|control|control (ssRNA)
RNA: GGGAGUUCUACAGUCCGACGAUCUCUGUGCCUUCAUCUACUAGCACUAUGAAGACAGGCCCAUUGAUUAGCAGUUCUCAGGGUAGAAACAGUCCUGCCUUGGCUGUAAUGACAGCAUCUGUGGCUAACAUACAGGCUACUGAACAACAGAGGAUUGAGCAUCA
B7: chr8:23572142:23572248:+|3pUTR|ENSG00000147454|unk|FALSE|unique (ssRNA)
RNA: GGGAGUUCUACAGUCCGACGAUCCCUCCCUGGGCAGAAUGUAGCUUUUCUGCUUCACUGUGGCAGCCUCCUCCCUGGAUCCUUAGAUCCCAGAGGAGGGAAGAAAAUUUGCAGUGACUGAAAACAGUAAAAAAAAAAAAAAAACAACAGAGGAUUGAGCAUCA
B8: ENSG00000198589:be:win_7951|CDS|ENSG00000198589|bound_else_gene|NA|bound_elsewhere_windowed (ssRNA)
RNA: GGGAGUUCUACAGUCCGACGAUCCGUGAUGCAACUCUUUUGCUGUGGUAUUGGAAUGGAAAAUGCAGUGGGAUUGGAGAUAACCCAGGCAGUGAGACUGCUGCUCCUCGGGCCAUUUUGACCGGCCAUGACUAUGAGGUCACACAACAGAGGAUUGAGCAUCA
B9: chr2:15946816:15946917:+|3pUTR|ENSG00000134323|unk|FALSE|unique (ssRNA)
RNA: GGGAGUUCUACAGUCCGACGAUCUAUAUGCCUUUUUCCUAGCCUGUUUCUUCCUGUUAAUGUAUUUGUUCAUGUUUGGUGCAUAGAACUGGGUAAAUGCAAAGUUCUGUGUUUAAUUUCUUCAAAAUGUAUAUAUUUAGUGCUCAACAGAGGAUUGAGCAUCA
B10: ENSG00000165280:stop:overlap|stop_codon|ENSG00000165280|stop_codon|NA|stop_codon (ssRNA)
RNA: GGGAGUUCUACAGUCCGACGAUCCCGAGGUCAUGAACUCUCUAGCAGUUACUAUGGAUGACUUCCGGUUUUCCCUCCUUUUCUAGUGGGCCUUGAGCCAGAGUAACCCAUCAGCACUGCGGGAAACCGUGGUAGAGGUGCCACCAACAGAGGAUUGAGCAUCA
B11: chr6:149811313:149811414:+|3pUTR|ENSG00000120265|msi1|FALSE|unique (ssRNA)
RNA: GGGAGUUCUACAGUCCGACGAUCUGUUUCUAAUUUGCUGCUGAUAAUGUAUAUGAACUUAACAUGCUGUGUAAGCUGUGUCCUAGUUCUUGAACAGUUUAUGCAGUGCUGCUUUGCCAAAUAAAGUUAAAAGUAAAAGAGGCACAACAGAGGAUUGAGCAUCA
B12: chr19:53069209:53069329:-|CDS|ENSG00000170949|unk|total|mutant (ssRNA)
RNA: GGGAGUUCUACAGUCCGACGAUCUGGAGAGAAACCUUACAAGUGCAAUGAGUGCGGCAAAGCCUUCCGUGUUCGUUCAAGCCCCGCAAUCCAUCAGACAAUCCACACUGGAGAAAAACCUUACAAAUGUAAUGAAUGUGGCAACAACAGAGGAUUGAGCAUCA
B13: chr10:100209595:100209696:-|CDS|ENSG00000213341|unk|FALSE|unique (ssRNA)
RNA: GGGAGUUCUACAGUCCGACGAUCACUUCUUUCAGAGACAGGAAUUUCUCUGGAUCCUCGGAAACCAGCCUCUCAAUGUGUUCUAGAUGGAGUUGUAAGAAAAUUAAUUAUAAUAUCCCUAGAGUAUGUGAAAUCUAGAGGGAUCAACAGAGGAUUGAGCAUCA
B14: chr3:44647099:44647200:+|3pUTR|ENSG00000186448|msi1|FALSE|unique (ssRNA)
RNA: GGGAGUUCUACAGUCCGACGAUCAUUUGUAUGUAAACUACAUAAAGAACUUUCCAAAUUUAACAGUAAUAAGUAAAUACAAUUAGAAAAUAAGCAAAAGACAGACAUUUCACUGAAGUAUAGAUAGCAAAUAAGCAAAUGAAACAACAGAGGAUUGAGCAUCA
B15: chr9:21227606:21228173:-|CDS|ENSG00000234829|control|control|control (ssRNA)
RNA: GGGAGUUCUACAGUCCGACGAUCGCAGACCUUCAAUCUCUUCAGCACAGAGGACUCAUCUGCUGCUUGGGAACAGAGCCUCCUAGAAAAAUUUUCCACUGAACUUUACCAGCAACUGAAUAACCUGGAAGCAUGUGUGAUACACAACAGAGGAUUGAGCAUCA
B16: chr7:152122106:152122213:+|3pUTR|ENSG00000178234|unk|FALSE|unique (ssRNA)
RNA: GGGAGUUCUACAGUCCGACGAUCAGUGGUUUUUAUCUGAUCAGGAACUUGUCAUGAUUUCCUUUCUUAGACUUCAUAGGAGAUAGUGCUUUAAAAAAAAAAAAAACUUCUAUUAUUUGUUUAGUAUGUUGUAAGUAGAUCAUUCAACAGAGGAUUGAGCAUCA
B17: ENSG00000173757:stop:overlap|stop_codon|ENSG00000173757|stop_codon|NA|stop_codon (ssRNA)
RNA: GGGAGUUCUACAGUCCGACGAUCACCAGGCCCCCUCCCCAGCUGUGUGUCCCCAGGCUCACUAUAACAUGUACCCACAGAAGUAGGUGGCAUUCUUGUGGGGGUCCACAGGGGAGGAACUGGGGGCUUGGCCCCAGGCUGGACCAACAGAGGAUUGAGCAUCA
B18: ENSG00000107863:be:win_1901|CDS|ENSG00000107863|bound_else_gene|NA|bound_elsewhere_windowed (ssRNA)
RNA: GGGAGUUCUACAGUCCGACGAUCCAAAACCAUCAUUUAGCCAGAAAUCAUUUGUUUCUAUCAAAGACCAAAGACCAGUAAAUCACUUGCAUCAGAACAGUCUGUUGAAUCAGCAGACAUGGGUAAGGACUGACAGUGCCCCCGCAACAGAGGAUUGAGCAUCA
B19: chr16:3727831:3727932:-|CDS|ENSG00000005339|unk|FALSE|bound_elsewhere (ssRNA)
RNA: GGGAGUUCUACAGUCCGACGAUCCGUCUCACCCCAGACUGGUUCCCCCCACCCCGGACUCGCAGUCACCAUGGCCAGCUCCAUAGAUCAGGGACACUUGGGGAACCCCGAACAGAGUGCAAUGCUCCCCCAGCUGAACACCCCCAACAGAGGAUUGAGCAUCA
B20: ENSG00000070961:be:win_951|CDS|ENSG00000070961|bound_else_gene|NA|bound_elsewhere_windowed (ssRNA)
RNA: GGGAGUUCUACAGUCCGACGAUCUGAGAAUCGCAACAAAGCAAAAGCCCAGGAUGGUGCAGCCAUGGAAAUGCAGCCAUUGAAGAGUGAAGAAGGUGGAGAUGGUGAUGAAAAAGAUAAAAAGAAAGCAAAUUUGCCAAAAAACAACAGAGGAUUGAGCAUCA
B21: chr4:7762510:7762611:-|3pUTR|ENSG00000196526|msi1|total|mutant (ssRNA)
RNA: GGGAGUUCUACAGUCCGACGAUCGUGCAAUAUUUCUUGGAGAAUUUGGAUGCCUAAGGCAUAAAGGAAAAAAACAGAGUUCACCGUUUGAGCUGGUAUUUACCCCCUGGGUUUAAAAAUCAGAUUAACUUCUUGGUCUCCCGGCAACAGAGGAUUGAGCAUCA
B22: chr10:92030311:92030412:+|3pUTR|ENSG00000095564|unk|total|mutant (ssRNA)
RNA: GGGAGUUCUACAGUCCGACGAUCAUAUAAGAUUGAAACUGUAAAAUAUAUGCAACUGUGUGUUAUUUGCCGGAAAUGGUCACCCGAAAGAGCAAAAGAUUAUUCAGGUAUACAGGUUUUUUUUCAUUGUUCCGGAUUUUAACUCAACAGAGGAUUGAGCAUCA

What follows are binders tested against MSI1 full-length (mouse, UniProt Q61474 1-362) (assay: nsRBNS (natural sequence RNA bind-n-seq); RBNS binding buffer (assumed for nsRBNS): 25 mM Tris pH 7.5, 150 mM KCl, 3 mM MgCl2, 0.01% Triton X-100, 500 ug/ml BSA, 20 U/ml SUPERase-In, 4 C; UNK is unkempt and MSI1 is Musashi-1; names of the RNAs are library labels; protein concentration not given here; high values mean tight binding).
UniProt Q61474, sequence (Q61474 whole entry): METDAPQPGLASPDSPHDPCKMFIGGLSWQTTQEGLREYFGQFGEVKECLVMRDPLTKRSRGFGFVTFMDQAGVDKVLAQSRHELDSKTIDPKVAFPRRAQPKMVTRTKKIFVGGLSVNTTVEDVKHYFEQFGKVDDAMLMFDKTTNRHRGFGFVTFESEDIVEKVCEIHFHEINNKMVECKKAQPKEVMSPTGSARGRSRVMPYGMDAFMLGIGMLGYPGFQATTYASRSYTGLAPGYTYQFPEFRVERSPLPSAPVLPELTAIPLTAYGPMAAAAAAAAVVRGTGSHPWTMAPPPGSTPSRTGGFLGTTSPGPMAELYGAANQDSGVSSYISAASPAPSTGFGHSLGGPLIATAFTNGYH

| Binder | binding signal |
| --- | --- |
| B1 | 0.71 enrichment R |
| B2 | 5.44 enrichment R |
| B3 | 0.814 enrichment R |
| B4 | 16.1 enrichment R |
| B5 | 0.283 enrichment R |
| B6 | 0.533 enrichment R |
| B7 | 0.803 enrichment R |
| B8 | 0.42 enrichment R |
| B9 | 6.12 enrichment R |
| B10 | 0.663 enrichment R |
| B11 | 0.87 enrichment R |
| B12 | 0.399 enrichment R |
| B13 | 0.755 enrichment R |
| B14 | 129 enrichment R |
| B15 | 0.449 enrichment R |
| B16 | 20.2 enrichment R |
| B17 | 0.357 enrichment R |
| B18 | 0.904 enrichment R |
| B19 | 0.562 enrichment R |
| B20 | 0.426 enrichment R |
| B21 | 0.266 enrichment R |
| B22 | 0.297 enrichment R |
